# Assay results: the supplement of paper PMC8728848
# This is one part of the list.
# Assays:
# Experiment in all cases: glycan array binding signal (z-score within array); higher = stronger binding
# Details in all cases: glycan notation: IUPAC condensed, linker removed
# [1] = molecular target: Gal(b1-3)[Neu5Ac(a2-6)]GalNAc
# Outline: (§1)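 Negative Z-scores can be read as non-binding. The Z-score is calculated within each array and then averaged across arrays of one protein sequence at different concentrations or buffers and across linkers. Arrays, 3228 in all, were curated from the Consortium for Functional Glycomics database and kept only where the protein sequence was available.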
# [2] = molecular target: Gal(b1-3)[Neu5Ac(a2-6)]GlcNAc
# Outline: as §1
# [3] = molecular target: Gal(b1-3)[Neu5Ac(a2-6)]GlcNAc(a1-4)Gal(b1-4)Glc
# Outline: as §1
# [4] = molecular target: Gal(b1-3)[Neu5Ac(b2-6)]GlcNAc
# Outline: as §1
# [5] = molecular target: Gal(b1-4)GalNAc(a1-3)[Fuc(a1-2)]Gal(b1-4)GlcNAc
# Outline: as §1
# [6] = molecular target: Gal(b1-4)GalNAc(b1-3)[Fuc(a1-2)]Gal(b1-4)GlcNAc
# Outline: as §1
# Gal(b1-4)Glc = molecular target: Gal(b1-4)Glc
# Outline: as §1
# Gal(b1-4)Glc6S = molecular target: Gal(b1-4)Glc6S
# Outline: as §1
# Gal(b1-4)GlcNAc = molecular target: Gal(b1-4)GlcNAc
# Outline: as §1
# [7] = molecular target: Gal(b1-4)GlcNAc(b1-2)Man(a1-3)[Gal(b1-4)GlcNAc(b1-2)Man(a1-6)]Man(b1-4)GlcNAc(b1-4)GlcNAc
# Outline: as §1
# [8] = molecular target: Gal(b1-4)GlcNAc(b1-3)Gal(b1-4)Glc
# Outline: as §1
# [9] = molecular target: Gal(b1-4)GlcNAc(b1-3)Gal(b1-4)GlcNAc
# Outline: as §1
# [10] = molecular target: Gal(b1-4)GlcNAc(b1-3)Gal(b1-4)GlcNAc(b1-3)Gal(b1-4)GlcNAc
# Outline: as §1
# [11] = molecular target: Gal(b1-4)GlcNAc(b1-3)Gal(b1-4)[Fuc(a1-3)]GlcNAc(b1-3)Gal(b1-4)[Fuc(a1-3)]GlcNAc
# Outline: as §1
# [12] = molecular target: Gal(b1-4)GlcNAc(b1-3)GalNAc
# Outline: as §1
# [13] = molecular target: Gal(b1-4)GlcNAc(b1-3)[Gal(b1-4)GlcNAc(b1-6)]GalNAc
# Outline: as §1
# [14] = molecular target: Gal(b1-4)GlcNAc(b1-6)GalNAc
# Outline: as §1
# [15] = molecular target: Gal(b1-4)GlcNAc(b1-6)[Gal(b1-3)]GalNAc
# Outline: as §1
# [16] = molecular target: Gal(b1-4)GlcNAc(b1-6)[Gal(b1-3)]GlcNAc
# Outline: as §1
# Gal3S(b1-3)GalNAc = molecular target: Gal3S(b1-3)GalNAc
# Outline: as §1
# Gal3S(b1-3)GlcNAc = molecular target: Gal3S(b1-3)GlcNAc
# Outline: as §1
# [17] = molecular target: Gal3S(b1-3)[Fuc(a1-4)]GlcNAc
# Outline: as §1
# Gal3S(b1-4)Glc = molecular target: Gal3S(b1-4)Glc
# Outline: as §1
# Gal3S(b1-4)Glc6S = molecular target: Gal3S(b1-4)Glc6S
# Outline: as §1
# Gal3S(b1-4)GlcNAc = molecular target: Gal3S(b1-4)GlcNAc
# Outline: as §1
# Gal3S(b1-4)GlcNAc6S = molecular target: Gal3S(b1-4)GlcNAc6S
# Outline: as §1
# Gal3S6S(b1-4)GlcNAc = molecular target: Gal3S6S(b1-4)GlcNAc
# Outline: as §1
# Gal3S6S(b1-4)GlcNAc6S = molecular target: Gal3S6S(b1-4)GlcNAc6S
# Outline: as §1
# Gal4S(b1-4)GlcNAc = molecular target: Gal4S(b1-4)GlcNAc
# Outline: as §1
# Gal4S6S(b1-4)GlcNAc = molecular target: Gal4S6S(b1-4)GlcNAc
# Outline: as §1
# Gal6S(b1-4)Glc = molecular target: Gal6S(b1-4)Glc
# Outline: as §1
# Gal6S(b1-4)Glc6S = molecular target: Gal6S(b1-4)Glc6S
# Outline: as §1
# Gal6S(b1-4)GlcNAc = molecular target: Gal6S(b1-4)GlcNAc
# Outline: as §1
# GalNAc(a1-3)Gal = molecular target: GalNAc(a1-3)Gal
# Outline: as §1
# GalNAc(a1-3)GalNAc = molecular target: GalNAc(a1-3)GalNAc
# Outline: as §1
# [18] = molecular target: GalNAc(b1-3)Gal(a1-4)Gal(b1-4)GlcNAc
# Outline: as §1
# GalNAc(b1-4)GlcNAc = molecular target: GalNAc(b1-4)GlcNAc
# Outline: as §1
# Glc(a1-4)Glc = molecular target: Glc(a1-4)Glc
# Outline: as §1
# Glc(a1-6)Glc(a1-6)Glc = molecular target: Glc(a1-6)Glc(a1-6)Glc
# Outline: as §1
# Glc(b1-4)Glc = molecular target: Glc(b1-4)Glc
# Outline: as §1
# Glc(b1-6)Glc = molecular target: Glc(b1-6)Glc
# Outline: as §1
# GlcA(b1-3)Gal = molecular target: GlcA(b1-3)Gal
# Outline: as §1
# GlcA(b1-6)Gal = molecular target: GlcA(b1-6)Gal
# Outline: as §1
# [19] = molecular target: GlcNAc(a1-3)Gal(b1-4)GlcNAc
# Outline: as §1
# [20] = molecular target: GlcNAc(a1-6)Gal(b1-4)GlcNAc
# Outline: as §1
# [21] = molecular target: GlcNAc(b1-2)Gal(b1-3)GlcNAc
# Outline: as §1
# [22] = molecular target: GlcNAc(b1-2)Man(a1-3)[GlcNAc(b1-2)Man(a1-6)]Man(b1-4)GlcNAc(b1-4)GlcNAc
# Outline: as §1
# GlcNAc(b1-3)Gal = molecular target: GlcNAc(b1-3)Gal
# Outline: as §1
# [23] = molecular target: GlcNAc(b1-3)Gal(b1-3)GalNAc
# Outline: as §1
# GlcNAc(b1-3)Gal(b1-4)Glc = molecular target: GlcNAc(b1-3)Gal(b1-4)Glc
# Outline: as §1
# [24] = molecular target: GlcNAc(b1-3)Gal(b1-4)GlcNAc
# Outline: as §1
# [25] = molecular target: GlcNAc(b1-3)Gal(b1-4)GlcNAc(b1-3)Gal(b1-4)GlcNAc
# Outline: as §1
# GlcNAc(b1-3)GalNAc = molecular target: GlcNAc(b1-3)GalNAc
# Outline: as §1
# [26] = molecular target: GlcNAc(b1-3)[GlcNAc(b1-4)][GlcNAc(b1-6)]GlcNAc
# Outline: as §1
# [27] = molecular target: GlcNAc(b1-3)[GlcNAc(b1-6)]Gal(b1-4)GlcNAc
# Outline: as §1
# [28] = molecular target: GlcNAc(b1-3)[GlcNAc(b1-6)]GlcNAc
# Outline: as §1
# [29] = molecular target: GlcNAc(b1-4)Gal(b1-4)GlcNAc
# Outline: as §1
# [30] = molecular target: GlcNAc(b1-4)GlcNAc(b1-4)GlcNAc
# Outline: as §1
# [31] = molecular target: GlcNAc(b1-4)GlcNAc(b1-4)GlcNAc(b1-4)GlcNAc(b1-4)GlcNAc
# Outline: as §1
# [32] = molecular target: GlcNAc(b1-4)GlcNAc(b1-4)GlcNAc(b1-4)GlcNAc(b1-4)GlcNAc(b1-4)GlcNAc
# Outline: as §1
# [33] = molecular target: GlcNAc(b1-4)[GlcNAc(b1-6)]GalNAc
# Outline: as §1
# [34] = molecular target: GlcNAc(b1-6)Gal(b1-4)GlcNAc
# Outline: as §1
# GlcNAc(b1-6)GalNAc = molecular target: GlcNAc(b1-6)GalNAc
# Outline: as §1
# Kdn(a2-3)Gal(b1-3)GlcNAc = molecular target: Kdn(a2-3)Gal(b1-3)GlcNAc
# Outline: as §1
binder,measurement,setting,value
TbCVNHOb (Tuber borchii) (protein) GSHIGPYMSFYASSEDVRTIEEGGRTWLVGRARRADGSWQDIKLDLDNIIGNRDGHLTWGEQNFTQSASDIRFNFEGGSNVPVLRAKLRNAAGGEQESDLNLGERLTNNNGDLVFN,glycan array binding signal (z-score),[1],-0.305
same,glycan array binding signal (z-score),[2],-0.484
same,glycan array binding signal (z-score),[3],4.83
same,glycan array binding signal (z-score),[4],-0.311
same,glycan array binding signal (z-score),[5],1.04
same,glycan array binding signal (z-score),[6],-0.367
same,glycan array binding signal (z-score),Gal(b1-4)Glc,-0.259
same,glycan array binding signal (z-score),Gal(b1-4)Glc6S,0.011
same,glycan array binding signal (z-score),Gal(b1-4)GlcNAc,-0.364
same,glycan array binding signal (z-score),[7],-0.4
same,glycan array binding signal (z-score),[8],2.59
same,glycan array binding signal (z-score),[9],-0.126
same,glycan array binding signal (z-score),[10],0.516
same,glycan array binding signal (z-score),[11],-0.334
same,glycan array binding signal (z-score),[12],-0.383
same,glycan array binding signal (z-score),[13],-0.294
same,glycan array binding signal (z-score),[14],-0.561
same,glycan array binding signal (z-score),[15],-0.316
same,glycan array binding signal (z-score),[16],-0.568
same,glycan array binding signal (z-score),Gal3S(b1-3)GalNAc,-0.531
same,glycan array binding signal (z-score),Gal3S(b1-3)GlcNAc,-0.28
same,glycan array binding signal (z-score),[17],-0.55
same,glycan array binding signal (z-score),Gal3S(b1-4)Glc,-0.289
same,glycan array binding signal (z-score),Gal3S(b1-4)Glc6S,-0.244
same,glycan array binding signal (z-score),Gal3S(b1-4)GlcNAc,-0.056
same,glycan array binding signal (z-score),Gal3S(b1-4)GlcNAc6S,-0.44
same,glycan array binding signal (z-score),Gal3S6S(b1-4)GlcNAc,-0.516
same,glycan array binding signal (z-score),Gal3S6S(b1-4)GlcNAc6S,-0.486
same,glycan array binding signal (z-score),Gal4S(b1-4)GlcNAc,-0.362
same,glycan array binding signal (z-score),Gal4S6S(b1-4)GlcNAc,0.433
same,glycan array binding signal (z-score),Gal6S(b1-4)Glc,0.32
same,glycan array binding signal (z-score),Gal6S(b1-4)Glc6S,-0.291
same,glycan array binding signal (z-score),Gal6S(b1-4)GlcNAc,-0.436
same,glycan array binding signal (z-score),GalNAc(a1-3)Gal,-0.318
same,glycan array binding signal (z-score),GalNAc(a1-3)GalNAc,-0.388
same,glycan array binding signal (z-score),[18],1.86
same,glycan array binding signal (z-score),GalNAc(b1-4)GlcNAc,-0.366
same,glycan array binding signal (z-score),Glc(a1-4)Glc,-0.337
same,glycan array binding signal (z-score),Glc(a1-6)Glc(a1-6)Glc,0.422
same,glycan array binding signal (z-score),Glc(b1-4)Glc,0.042
same,glycan array binding signal (z-score),Glc(b1-6)Glc,0.333
same,glycan array binding signal (z-score),GlcA(b1-3)Gal,1.11
same,glycan array binding signal (z-score),GlcA(b1-6)Gal,-0.483
same,glycan array binding signal (z-score),[19],-0.185
same,glycan array binding signal (z-score),[20],-0.201
same,glycan array binding signal (z-score),[21],-0.402
same,glycan array binding signal (z-score),[22],-0.286
same,glycan array binding signal (z-score),GlcNAc(b1-3)Gal,-0.16
same,glycan array binding signal (z-score),[23],-0.412
same,glycan array binding signal (z-score),GlcNAc(b1-3)Gal(b1-4)Glc,0.325
same,glycan array binding signal (z-score),[24],-0.066
same,glycan array binding signal (z-score),[25],-0.388
same,glycan array binding signal (z-score),GlcNAc(b1-3)GalNAc,-0.177
same,glycan array binding signal (z-score),[26],-0.077
same,glycan array binding signal (z-score),[27],-0.551
same,glycan array binding signal (z-score),[28],-0.365
same,glycan array binding signal (z-score),[29],0.438
same,glycan array binding signal (z-score),[30],-0.364
same,glycan array binding signal (z-score),[31],-0.165
same,glycan array binding signal (z-score),[32],-0.463
same,glycan array binding signal (z-score),[33],0.22
same,glycan array binding signal (z-score),[34],0.14
same,glycan array binding signal (z-score),GlcNAc(b1-6)GalNAc,-0.337
same,glycan array binding signal (z-score),Kdn(a2-3)Gal(b1-3)GlcNAc,-0.56
